Laboratory results taken from article PMC4336329 (PLoS ONE, 2015).
In all, about 310,000 compounds went through this assay and about 2,200 (0.71%) showed an effect of 50% or more. Effects have a minus sign here. The list shows a part of the results.

What follows are compounds tested against human ether-à-go-go-related gene (hERG) potassium channel (human, UniProt Q12809) (assay: primary screen, population patch clamp on CHO cells stably expressing hERG).
Chain of human ether-à-go-go-related gene (hERG) potassium channel (Q12809 whole entry, looked up): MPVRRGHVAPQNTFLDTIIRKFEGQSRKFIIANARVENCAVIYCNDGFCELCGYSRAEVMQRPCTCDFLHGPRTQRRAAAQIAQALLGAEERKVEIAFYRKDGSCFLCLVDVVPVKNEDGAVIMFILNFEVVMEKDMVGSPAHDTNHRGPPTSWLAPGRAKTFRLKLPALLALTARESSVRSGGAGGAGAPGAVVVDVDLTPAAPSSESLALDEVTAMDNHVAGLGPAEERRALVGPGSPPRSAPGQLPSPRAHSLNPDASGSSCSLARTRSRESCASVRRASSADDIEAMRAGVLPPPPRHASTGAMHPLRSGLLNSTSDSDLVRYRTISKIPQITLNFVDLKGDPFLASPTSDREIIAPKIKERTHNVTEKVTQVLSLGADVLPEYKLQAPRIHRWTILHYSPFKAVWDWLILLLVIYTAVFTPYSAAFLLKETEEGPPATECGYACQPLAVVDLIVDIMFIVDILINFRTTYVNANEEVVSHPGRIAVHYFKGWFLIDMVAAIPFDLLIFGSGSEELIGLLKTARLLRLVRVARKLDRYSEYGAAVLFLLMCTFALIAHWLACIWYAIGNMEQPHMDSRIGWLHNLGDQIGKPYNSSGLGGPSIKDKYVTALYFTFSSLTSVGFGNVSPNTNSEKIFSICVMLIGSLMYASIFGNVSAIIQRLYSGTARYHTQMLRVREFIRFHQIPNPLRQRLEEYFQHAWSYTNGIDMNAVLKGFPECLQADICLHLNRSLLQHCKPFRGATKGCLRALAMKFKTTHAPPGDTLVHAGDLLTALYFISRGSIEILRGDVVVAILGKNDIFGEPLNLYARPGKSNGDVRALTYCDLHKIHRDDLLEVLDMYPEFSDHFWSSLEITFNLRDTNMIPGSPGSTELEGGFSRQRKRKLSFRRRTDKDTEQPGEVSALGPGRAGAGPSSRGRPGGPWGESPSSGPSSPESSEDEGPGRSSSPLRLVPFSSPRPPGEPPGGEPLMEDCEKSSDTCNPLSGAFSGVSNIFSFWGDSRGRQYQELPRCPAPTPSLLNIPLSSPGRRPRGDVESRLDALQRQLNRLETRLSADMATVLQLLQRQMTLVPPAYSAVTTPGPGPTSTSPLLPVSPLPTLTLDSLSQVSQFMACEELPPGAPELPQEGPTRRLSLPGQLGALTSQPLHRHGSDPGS

| Compound | hERG current change (%, negative = inhibition) at 1uM [%] |
| --- | --- |
| COc1ccc(C(=O)NC(=O)CSc2nnc(-c3ccco3)n2-c2ccccc2)cc1 | 8.42 |
| CCOc1ccc(S(=O)(=O)N2CCCCC2)cc1NC(=O)CN1CCCC1c1cccs1 (stereo not shown) | -0.0623 |
| Cc1c(NS(=O)(=O)c2cc(Br)cc3c2N(C(=O)C2CC2)CC3)c(=O)n(-c2ccccc2)n1C | 14 |
| Cc1nnc(NC(=O)CSC2=NN3CCCC(=O)N=C3S2)s1 | 8.54 |
| O=C(OCc1cc([N+](=O)[O-])cc2c1OCOC2)c1ccc2ccccc2n1 | 13.1 |
| CCCn1c(SCC(=O)Nc2ccc(C(=O)Nc3ccccc3OC)cc2)n[nH]c1=O | 17.6 |
| Cc1onc(C(=O)N2CCN(c3ccccc3)CC2)c1[N+](=O)[O-] | 15.4 |
| Cc1c(C(=O)O)sc2nc(SCC(=O)Nc3ccc(S(=O)(=O)NC(C)(C)C)cc3)[nH]c(=O)c12 | 16.1 |
| O=C(NCN1CCCCC1)c1cnccn1 | -6.1 |
| COC(=O)c1ccc(CSc2nnc(-c3ccncc3)n2Cc2ccccc2)o1 | 5 |
| Cc1ccccc1Nc1c([N+](=O)[O-])ccc2nonc12 | -10.2 |
| C/C(=N\NC(=O)c1ccco1)c1ccc(NC(=O)c2ccccc2)cc1 | 9.16 |
| Br.COc1ccc(C(=O)CN2Cc3ccccc3C2=N)cc1 | 1.8 |
| N#Cc1c(N)nc(Sc2ccc(Cl)cc2)c(C#N)c1-c1ccccc1Cl | 10.2 |
| Cc1ccc(N(C)S(=O)(=O)c2cccc(C(=O)Nc3nnc(C4CC4)s3)c2)cc1 | 10.1 |
| CC(C)(C)N(CC(=O)NC1CCCCC1)C(=O)CS(=O)CC(=O)Nc1ccc(F)cc1 (stereo not shown) | 13.5 |
| COc1ccc(-n2c(=O)c3ccccc3n(CC(=O)NC3CCCC3)c2=O)c(OC)c1 | -6.61 |
| O=C(Nc1ccc(F)c(F)c1)C1CCCN(S(=O)(=O)c2cnc[nH]2)C1 (stereo not shown) | -0.795 |
| CCC(=O)c1cc2c(cc1NC(=O)c1cccs1)OCCO2 | 7.22 |
| CCc1nc(-c2ccccc2)c2ccccn12.O=C(O)C(=O)O | -1.42 |
| O=C(NCC1CCCO1)c1ccc(NC(=O)c2cccc(Cl)c2)cc1 (stereo not shown) | -1.28 |
| O=C(NC1CCCC1)C(c1cccs1)N(C(=O)c1ccno1)c1ccccc1 (stereo not shown) | 7.53 |

| Compound | hERG current change (%, negative = inhibition) at 1uM [%] |
| --- | --- |
| CC1(c2ccccc2)NC(=O)N(CC(=O)Nc2ccc(Cl)c(S(=O)(=O)N3CCCCC3)c2)C1=O (stereo not shown) | 9.13 |
| CCN(CC(=O)Nc1ccccc1OC)C(=O)c1ccc(NC(=O)c2cccs2)cc1 | 12.2 |
| COc1cccc(N2CCN(S(=O)(=O)c3c(C)[nH]c(C)c3C(=O)N3CCCC3)CC2)c1 | 13.5 |
| CCN1CCN(CCNC(=O)c2ccc(CS(=O)c3ccc(Cl)cc3)o2)CC1 (stereo not shown) | 8.59 |
| COc1ccc(S(=O)(=O)N2CCOC23CCN(S(=O)(=O)c2ccc(F)cc2)CC3)cc1 | 6.42 |
| O=C(OCn1nnc2ccccc2c1=O)c1ccco1 | 10.7 |
| CC(C)CC(=O)N1CCN(C(=O)c2ccco2)CC1 | 8.93 |
| COc1ccc(-c2nc(CS(=O)(=O)CC(=O)NCc3cccc(Br)c3)c(C)o2)cc1 | -11.4 |
| CC(Cc1ccccc1)N1C(=O)c2ccccc2C1=O (stereo not shown) | 16.1 |
| CCOc1ccc(N(CC(=O)NCCSc2ccccn2)S(C)(=O)=O)cc1 | 12.9 |
| CCOC(=O)c1sc(=S)n(C)c1NC(=O)c1ccccc1Cl | 15 |
| CCCCCn1c(Sc2nc3ccccc3s2)nc2c1c(=O)[nH]c(=O)n2C | 0.9 |
| COc1cccc(OC)c1C(=O)Nn1c(-c2cccc(C)c2)nc2ccccc2c1=O | 12.6 |
| COC(=O)/C(=C(O)\C=C\c1ccccc1[N+](=O)[O-])c1nc2ccccc2[nH]1 | 7.17 |
| Cc1ccc(NC(=S)NCc2ccc(S(N)(=O)=O)cc2)cc1Cl | 8.61 |
| CCn1c(SCC(=O)N/N=C/c2ccc(C)s2)nc2ccccc21 | 8.66 |
| Cc1ccc(CNCCc2ccc(F)cc2)s1 | 11.3 |
| CSCCC(NC(=O)c1ccccc1Br)C(=O)NC(C)CCc1ccccc1 (stereo not shown) | 11.7 |
| O=C(NCCCNC(=O)c1ccco1)c1ccco1 | 10.9 |
| COC(=O)/C(N=Nc1cccc(C(F)(F)F)c1)=C(\C)O | 7.24 |
| CN(Cc1ccccc1)c1nc(-c2cccc([N+](=O)[O-])c2)nc2ccccc12 | 4.94 |
